“And” between values parts separate entries of the source, which are not always exact repeats. Equal entries are not always repeated. Structures can show the parent of a compound that is named as a salt. Screen size: about 5,800 compounds; about 620 (11%) showed activity.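 How the source made its calls: active = score above a cut-off or among the top three wells of a plate; in these data no inactive exceeds 0.85.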 This is a selection; strong and weak results do not stand in their true shares.
System: primary human hepatic stellate cells (donor 1)
Experiment: scaled lipid accumulation score (0 = DMSO-like, 1 = nortriptyline-like); higher = stronger HSC inactivation (lipid re-accumulation), active = hit call of the paper
Conditions: 48 h
[1] = library stock concentration: 10 mM
[2] = library stock concentration: 3.33 mM
[3] = library stock concentration: 1 mM
[4] = library stock concentration: 5.4 mM

In the case of `CC1=C(C(=O)OC2CCCCC2)C(c2ccc([N+](=O)[O-])cc2)C2=C(CC(C)(C)CC2=O)N1` (stereo not drawn), the “scaled lipid accumulation score” value [1] is reported as active: 0.997.

With `Cc1nnc(NS(=O)(=O)c2ccc(N)cc2)s1` [Sulfamethizole] the “scaled lipid accumulation score” value was inactive: ≤ 0, the “scaled lipid accumulation score” value [2] was inactive: ≤ 0 and the “scaled lipid accumulation score” value [1] was inactive: ≤ 0.

`N=C(N)S/C=C\C(=O)O` [ZAPA sulphate] was tested, and the “scaled lipid accumulation score” value [1] was inactive: 0.011.

For `C[C@@H](O)CCC[C@@H](O)/C=C/[C@H]1C(O)CC(O)C1CCCCCCC(=O)O` (stereo partly drawn) [15(R),19(R)-hydroxy Prostaglandin F1.alpha.], the “scaled lipid accumulation score” value [3] was inactive: ≤ 0.

For `CN1CCC(=C2c3ccccc3CCc3sccc32)CC1.O=C(O)CC(O)C(=O)O` [Pizotifen Malate], the “scaled lipid accumulation score” value [1] was active: 1.32.

For `Cc1c(C(=O)c2ccccc2)c(N)c(-c2ccccc2)n1Cc1ccc(Cl)cc1`, the “scaled lipid accumulation score” value [3] was inactive: ≤ 0.

In the case of `CCN1CCC[C@H]1CNC(=O)c1c(OC)ccc(Br)c1OC` [Remoxipride], the “scaled lipid accumulation score” value [4] is reported as inactive: 0.005.

For `CCN1CCC[C@H]1CNC(=O)c1c(OC)ccc(Br)c1OC` [Remoxipride hydrochloride], the “scaled lipid accumulation score” value [1] was inactive: ≤ 0.

In the case of `CCN1CCC[C@H]1CNC(=O)c1c(OC)ccc(Br)c1OC` [Remoxipride Hydrochloride], the “scaled lipid accumulation score” value is reported as inactive: ≤ 0.

In the case of `COc1cc(NS(C)(=O)=O)ccc1Nc1c2ccccc2nc2ccccc12` [Amsacrine hydrochloride], the “scaled lipid accumulation score” value [1] is reported as inactive: 0.365.

With `FC(F)c1nc2ccccc2n1-c1nc(N2CCOCC2)nc(N2CCOCC2)n1` the “scaled lipid accumulation score” value (library stock concentration: 80 uM) was inactive: ≤ 0, the “scaled lipid accumulation score” value (library stock concentration: 400 uM) was inactive: ≤ 0 and the “scaled lipid accumulation score” value (library stock concentration: 2 mM) was inactive: 0.007. The “scaled lipid accumulation score” value [2] was inactive: ≤ 0 and the “scaled lipid accumulation score” value [1] was inactive: ≤ 0 and inactive: 0.027.

With `O=C1C2CC3CC1CC(O)(C3)C2` the “scaled lipid accumulation score” value [1] was inactive: 0.163.

`CCN1CCN(c2cc3c(cc2F)c(=O)c(C(=O)O)cn3C2CC2)CC1` was tested, and the “scaled lipid accumulation score” value [1] was inactive: ≤ 0.

In the case of `Cc1cccc(Nc2nc(-c3ccncc3)cs2)c1`, the “scaled lipid accumulation score” value [2] is reported as active: 0.881 and the “scaled lipid accumulation score” value [1] is reported as active: 1.24.

In the case of `O=C1NC(=O)/C(=C/c2ccc(-c3ccc(F)cc3O)o2)S1`, the “scaled lipid accumulation score” value [1] is reported as active: 1.66.

For `c1ccc(CN2CCC3(CCc4ccccc43)CC2)cc1` [L-693,403 maleate], the “scaled lipid accumulation score” value [1] was inactive: 0.504.

With `OC1(c2ccc(Cl)c(C(F)(F)F)c2)CCN(CCCC(c2ccc(F)cc2)c2ccc(F)cc2)CC1` the “scaled lipid accumulation score” value [1] was inactive: 0.219.

For `OC1(c2ccc(Cl)c(C(F)(F)F)c2)CCN(CCCC(c2ccc(F)cc2)c2ccc(F)cc2)CC1` [Penfluridol], the “scaled lipid accumulation score” value [2] was inactive: 0.751 and the “scaled lipid accumulation score” value [1] was inactive: 0.013.

`COC(=O)Nc1nc2cc(C(=O)c3cccs3)ccc2[nH]1` [Nocodazole] was tested, and the “scaled lipid accumulation score” value was active: 0.883.

For `O=C(O)COC(=O)Cc1ccccc1Nc1c(Cl)cccc1Cl` [Aceclofenac], the “scaled lipid accumulation score” value was inactive: ≤ 0.

In the case of `Cc1cnc(NC(=O)C2=C(O)c3ccccc3S(=O)(=O)N2C)s1` [Meloxicam], the “scaled lipid accumulation score” value is reported as inactive: ≤ 0, the “scaled lipid accumulation score” value [2] is reported as inactive: ≤ 0 and the “scaled lipid accumulation score” value (library stock concentration: 5.7 mM) is reported as inactive: ≤ -0.006. The “scaled lipid accumulation score” value [1] was inactive: ≤ 0 and inactive: 0.006.

For `Cc1cnc(NC(=O)C2=C(O)c3ccccc3S(=O)(=O)N2C)s1` [Meloxicam sodium], the “scaled lipid accumulation score” value [4] was inactive: ≤ 0 and the “scaled lipid accumulation score” value [1] was inactive: ≤ -0.046.

`CC(C)NCC(O)COc1ccc(CC(N)=O)cc1` (racemic) was tested, and the “scaled lipid accumulation score” value [1] was inactive: ≤ 0.

With `CC(C)NCC(O)COc1ccc(CC(N)=O)cc1` (racemic) [(RS)-Atenolol] the “scaled lipid accumulation score” value [1] was inactive: 0.043.

`CC(C)NCC(O)COc1ccc(CC(N)=O)cc1` (racemic) [Atenolol] was tested, and the “scaled lipid accumulation score” value (library stock concentration: 7.5 mM) was inactive: ≤ 0 and inactive: 0.083 and the “scaled lipid accumulation score” value [1] was inactive: ≤ 0.

With `CC(C)NCC(O)COc1ccc(CC(N)=O)cc1` (racemic) [(?)-Atenolol] the “scaled lipid accumulation score” value [1] was inactive: 0.116.

With `CCCCC[C@H](O)/C=C/[C@H]1[C@H](O)CC(=O)[C@@H]1C/C=C\CCCC(=O)OC` [Prostaglandin E2 methyl ester] the “scaled lipid accumulation score” value [3] was inactive: ≤ 0.

In the case of `O=C(O)CCCc1ccccc1` [Sodium Phenylbutyrate], the “scaled lipid accumulation score” value [2] is reported as inactive: ≤ 0 and the “scaled lipid accumulation score” value [1] is reported as inactive: ≤ -0.001.

In the case of `O=C(O)CCCc1ccccc1` [sodium 4-Phenylbutyrate], the “scaled lipid accumulation score” value [1] is reported as inactive: ≤ -0.001.

For `O=C(O)CCCc1ccccc1` [Sodium phenylbutyrate], the “scaled lipid accumulation score” value (library stock concentration: 10.7 mM) was inactive: 0.049.

`O=C(O)CCCc1ccccc1` was tested, and the “scaled lipid accumulation score” value [1] was inactive: ≤ 0.

`NC1=NCCN1CC(=O)O` [Cyclocreatine] was tested, and the “scaled lipid accumulation score” value [1] was inactive: ≤ 0.

`CC1(C)O[C@@H]2C[C@H]3[C@@H]4CCC5=CC(=O)C=C[C@]5(C)[C@@]4(F)[C@@H](O)C[C@]3(C)[C@]2(C(=O)CO)O1` was tested, and the “scaled lipid accumulation score” value [1] was inactive: ≤ 0.

For `CC1(C)O[C@@H]2C[C@H]3[C@@H]4CCC5=CC(=O)C=C[C@]5(C)[C@@]4(F)[C@@H](O)C[C@]3(C)[C@]2(C(=O)CO)O1` [Triamcinolone acetonide], the “scaled lipid accumulation score” value [1] was inactive: ≤ 0.

For `CC1(C)O[C@@H]2C[C@H]3[C@@H]4CCC5=CC(=O)C=C[C@]5(C)[C@@]4(F)[C@@H](O)C[C@]3(C)[C@]2(C(=O)CO)O1` [Triamcinolone Acetonide], the “scaled lipid accumulation score” value [2] was inactive: ≤ 0 and the “scaled lipid accumulation score” value [1] was inactive: ≤ 0.

For `CC(C)(C)C(=O)Nc1ccccc1` [N-Pivaloylaniline], the “scaled lipid accumulation score” value [3] was inactive: 0.066.

In the case of `N=C(N)SCCc1c[nH]cn1` [Imetit dihydrobromide], the “scaled lipid accumulation score” value [1] is reported as inactive: ≤ -0.055 and inactive: 0.009.

With `CN1CCN(CCCN2c3ccccc3Sc3ccc(Cl)cc32)CC1` [Prochlorperazine edisylate] the “scaled lipid accumulation score” value (library stock concentration: 3.5 mM) was inactive: 0.713 and the “scaled lipid accumulation score” value [1] was inactive: 0.523.

For `CN1CCN(CCCN2c3ccccc3Sc3ccc(Cl)cc32)CC1` [Prochlorperazine dimaleate], the “scaled lipid accumulation score” value was inactive: 0.696 and the “scaled lipid accumulation score” value [1] was inactive: 0.815.

`COC(=O)CCSCc1ccc(-c2onc(C)c2NC(=O)OC(C)c2ccccc2Cl)cc1` (stereo not drawn) was tested, and the “scaled lipid accumulation score” value [2] was inactive: 0.07 and the “scaled lipid accumulation score” value [1] was inactive: ≤ 0.

In the case of `C[C@H](N)C(=O)CCCCCC(=O)O` [KAPA (hydrochloride)], the “scaled lipid accumulation score” value [3] is reported as inactive: 0.007.

`NS(=O)(=O)C#Cc1ccccc1` [Pifithrin->m] was tested, and the “scaled lipid accumulation score” value [1] was active: 1.46.

For `Cc1nc(=O)c2cc(CN(C)c3ccc(C(=O)N[C@@H](CCC(=O)O)C(=O)O)s3)ccc2[nH]1`, the “scaled lipid accumulation score” value [1] was inactive: ≤ 0.

`Cc1nc(=O)c2cc(CN(C)c3ccc(C(=O)N[C@@H](CCC(=O)O)C(=O)O)s3)ccc2[nH]1` [Raltitrexed] was tested, and the “scaled lipid accumulation score” value [2] was inactive: ≤ 0 and the “scaled lipid accumulation score” value [1] was inactive: ≤ 0.

From the supplement of paper PMC9135407
